Some of the results follow.
Assays:
Assay in all cases: glycan array binding signal (z-score within array); higher = stronger binding
Conditions in all cases: glycan notation: IUPAC condensed, linker removed
Fuc(a1-2)Gal = target: Fuc(a1-2)Gal
How it was run: (§1)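 The binding signal is a Z-score computed within each array. Data were drawn from 3228 arrays in the Consortium for Functional Glycomics database, restricted to those with a known protein sequence. Scores were averaged over arrays of the same protein sequence at different concentrations or buffers, and over linkers, and negative values can be taken as non-binding.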

Fuc(a1-2)Gal(b1-3)GalNAc = target: Fuc(a1-2)Gal(b1-3)GalNAc
How it was run: as §1

[1] = target: Fuc(a1-2)Gal(b1-3)GalNAc(a1-3)[Fuc(a1-2)]Gal(b1-4)Glc
How it was run: as §1

[2] = target: Fuc(a1-2)Gal(b1-3)GalNAc(a1-3)[Fuc(a1-2)]Gal(b1-4)GlcNAc
How it was run: as §1

[3] = target: Fuc(a1-2)Gal(b1-3)GalNAc(b1-3)Gal
How it was run: as §1

[4] = target: Fuc(a1-2)Gal(b1-3)GalNAc(b1-3)Gal(a1-4)Gal(b1-4)Glc
How it was run: as §1

[5] = target: Fuc(a1-2)Gal(b1-3)GalNAc(b1-3)Gal(b1-4)Glc
How it was run: as §1

[6] = target: Fuc(a1-2)Gal(b1-3)GalNAc(b1-4)[Neu5Ac(a2-3)]Gal(b1-4)Glc
How it was run: as §1

Fuc(a1-2)Gal(b1-3)GlcNAc = target: Fuc(a1-2)Gal(b1-3)GlcNAc
How it was run: as §1

[7] = target: Fuc(a1-2)Gal(b1-3)GlcNAc(b1-2)Man(a1-3)[Fuc(a1-2)Gal(b1-3)GlcNAc(b1-2)Man(a1-6)]Man(b1-4)GlcNAc(b1-4)GlcNAc
How it was run: as §1

[8] = target: Fuc(a1-2)Gal(b1-3)GlcNAc(b1-2)Man(a1-3)[Fuc(a1-2)Gal(b1-3)GlcNAc(b1-2)Man(a1-6)]Man(b1-4)GlcNAc(b1-4)[Fuc(a1-6)]GlcNAc
How it was run: as §1

[9] = target: Fuc(a1-2)Gal(b1-3)GlcNAc(b1-3)Gal(b1-4)Glc
How it was run: as §1

[10] = target: Fuc(a1-2)Gal(b1-3)GlcNAc(b1-3)GalNAc
How it was run: as §1

[11] = target: Fuc(a1-2)Gal(b1-3)GlcNAc(b1-3)[Fuc(a1-3)[Gal(b1-4)]GlcNAc(b1-6)]Gal(b1-4)Glc
How it was run: as §1

[12] = target: Fuc(a1-2)Gal(b1-3)GlcNAc(b1-3)[Gal(b1-4)GlcNAc(b1-6)]Gal(b1-4)Glc
How it was run: as §1

[13] = target: Fuc(a1-2)Gal(b1-3)[Fuc(a1-4)]GlcNAc
How it was run: as §1

[14] = target: Fuc(a1-2)Gal(b1-3)[Fuc(a1-4)]GlcNAc(b1-2)Man(a1-3)[Fuc(a1-2)Gal(b1-3)[Fuc(a1-4)]GlcNAc(b1-2)Man(a1-6)]Man(b1-4)GlcNAc(b1-4)GlcNAc
How it was run: as §1

[15] = target: Fuc(a1-2)Gal(b1-3)[Fuc(a1-4)]GlcNAc(b1-3)[Fuc(a1-3)[Gal(b1-4)]GlcNAc(b1-6)]Gal(b1-4)Glc
How it was run: as §1

[16] = target: Fuc(a1-2)Gal(b1-3)[Fuc(a1-4)]GlcNAc(b1-3)[Gal(b1-4)GlcNAc(b1-6)]Gal(b1-4)Glc
How it was run: as §1

Fuc(a1-2)Gal(b1-4)Glc = target: Fuc(a1-2)Gal(b1-4)Glc
How it was run: as §1

Fuc(a1-2)Gal(b1-4)Glc6S = target: Fuc(a1-2)Gal(b1-4)Glc6S
How it was run: as §1

Fuc(a1-2)Gal(b1-4)GlcNAc = target: Fuc(a1-2)Gal(b1-4)GlcNAc
How it was run: as §1

[17] = target: Fuc(a1-2)Gal(b1-4)GlcNAc(b1-2)Man(a1-3)[Fuc(a1-2)Gal(b1-4)GlcNAc(b1-2)Man(a1-6)]Man(b1-4)GlcNAc(b1-4)GlcNAc
How it was run: as §1

[18] = target: Fuc(a1-2)Gal(b1-4)GlcNAc(b1-2)Man(a1-3)[Fuc(a1-2)Gal(b1-4)GlcNAc(b1-2)Man(a1-6)]Man(b1-4)GlcNAc(b1-4)[Fuc(a1-6)]GlcNAc
How it was run: as §1

[19] = target: Fuc(a1-2)Gal(b1-4)GlcNAc(b1-2)[Fuc(a1-2)Gal(b1-4)GlcNAc(b1-4)]Man(a1-3)[Fuc(a1-2)Gal(b1-4)GlcNAc(b1-2)Man(a1-6)]Man(b1-4)GlcNAc(b1-4)GlcNAc
How it was run: as §1

[20] = target: Fuc(a1-2)Gal(b1-4)GlcNAc(b1-3)Gal(b1-4)GlcNAc
How it was run: as §1

[21] = target: Fuc(a1-2)Gal(b1-4)GlcNAc(b1-3)Gal(b1-4)GlcNAc(b1-3)Gal(b1-4)GlcNAc
How it was run: as §1

[22] = target: Fuc(a1-2)Gal(b1-4)GlcNAc(b1-3)GalNAc
How it was run: as §1

[23] = target: Fuc(a1-2)Gal(b1-4)GlcNAc6S
How it was run: as §1

[24] = target: Fuc(a1-2)Gal(b1-4)[Fuc(a1-3)]GalNAc(b1-3)Gal(b1-4)[Fuc(a1-3)]GlcNAc
How it was run: as §1

[25] = target: Fuc(a1-2)Gal(b1-4)[Fuc(a1-3)]GalNAc(b1-3)Gal(b1-4)[Fuc(a1-3)]GlcNAc(b1-3)Gal(b1-4)[Fuc(a1-3)]GalNAc
How it was run: as §1

[26] = target: Fuc(a1-2)Gal(b1-4)[Fuc(a1-3)]GlcNAc
How it was run: as §1

[27] = target: Fuc(a1-2)Gal(b1-4)[Fuc(a1-3)]GlcNAc(b1-2)Man(a1-3)[Fuc(a1-2)Gal(b1-4)[Fuc(a1-3)]GlcNAc(b1-2)Man(a1-6)]Man(b1-4)GlcNAc(b1-4)GlcNAc
How it was run: as §1

[28] = target: Fuc(a1-2)Gal(b1-4)[Fuc(a1-3)]GlcNAc(b1-2)[Fuc(a1-2)Gal(b1-4)[Fuc(a1-3)]GlcNAc(b1-4)]Man(a1-3)[Fuc(a1-2)Gal(b1-4)[Fuc(a1-3)]GlcNAc(b1-2)Man(a1-6)]Man(b1-4)GlcNAc(b1-4)GlcNAc
How it was run: as §1

[29] = target: Fuc(a1-2)Gal(b1-4)[Fuc(a1-3)]GlcNAc(b1-3)Gal(b1-4)[Fuc(a1-3)]GlcNAc
How it was run: as §1

[30] = target: Fuc(a1-2)Gal(b1-4)[Fuc(a1-3)]GlcNAc(b1-3)Gal(b1-4)[Fuc(a1-3)]GlcNAc(b1-3)Gal(b1-4)[Fuc(a1-3)]GlcNAc
How it was run: as §1

[31] = target: Fuc(a1-2)Gal(b1-4)[Fuc(a1-3)]GlcNAc(b1-3)GalNAc
How it was run: as §1

Fuc(a1-2)Gal6S(b1-4)Glc = target: Fuc(a1-2)Gal6S(b1-4)Glc
How it was run: as §1

[32] = target: Fuc(a1-2)Gal6S(b1-4)Glc6S
How it was run: as §1

[33] = target: Fuc(a1-2)Gal6S(b1-4)GlcNAc
How it was run: as §1

Fuc(a1-2)GlcNAc = target: Fuc(a1-2)GlcNAc
How it was run: as §1

Fuc(a1-2)[Gal(a1-3)]Gal = target: Fuc(a1-2)[Gal(a1-3)]Gal
How it was run: as §1

[34] = target: Fuc(a1-2)[Gal(a1-3)]Gal(b1-3)GlcNAc
How it was run: as §1

[35] = target: Fuc(a1-2)[Gal(a1-3)]Gal(b1-3)GlcNAc(b1-2)Man(a1-3)[Fuc(a1-2)[Gal(a1-3)]Gal(b1-3)GlcNAc(b1-2)Man(a1-6)]Man(b1-4)GlcNAc(b1-4)GlcNAc
How it was run: as §1

[36] = target: Fuc(a1-2)[Gal(a1-3)]Gal(b1-3)GlcNAc(b1-3)GalNAc
How it was run: as §1

B1: AAL (Aleuria aurantia), P18891 (protein)
chain: PTEFLYTSKIAAISWAATGGRQQRVYFQDLNGKIREAQRGGDNPWTGGSSQNVIGEAKLFSPLAAVTWKSAQGIQIRVYCVNKDNILSEFVYDGSKWITGQLGSVGVKVGSNSKLAALQWGGSESAPPNIRVYYQKSNGSGSSIHEYVWSGKWTAGASFGSTVPGTGIGATAIGPGRLRIYYQATDNKIREHCWDSNSWYVGGFSASASAGVSIAAISWGSTPNIRVYWQKGREELYEAAYGGSWNTPGQIKDASRPTPSLPDTFIAANSSGNIDISVFFQASGVSLQQWQWISGKGWSIGAVVPTGTPAGW
Fuc(a1-2)Gal
  glycan array binding signal (z-score): 1.88
Fuc(a1-2)Gal(b1-3)GalNAc
  glycan array binding signal (z-score): 0.997
[1]
  glycan array binding signal (z-score): 0.135
[2]
  glycan array binding signal (z-score): 0.095
[3]
  glycan array binding signal (z-score): -0.503
[4]
  glycan array binding signal (z-score): 0.298
[5]
  glycan array binding signal (z-score): 2.15
[6]
  glycan array binding signal (z-score): -0.417
Fuc(a1-2)Gal(b1-3)GlcNAc
  glycan array binding signal (z-score): 0.956
[7]
  glycan array binding signal (z-score): 0.432
[8]
  glycan array binding signal (z-score): -0.012
[9]
  glycan array binding signal (z-score): 0.776
[10]
  glycan array binding signal (z-score): -0.303
[11]
  glycan array binding signal (z-score): 1.17
[12]
  glycan array binding signal (z-score): 0.752
[13]
  glycan array binding signal (z-score): 1.55
[14]
  glycan array binding signal (z-score): -0.312
[15]
  glycan array binding signal (z-score): 0.986
[16]
  glycan array binding signal (z-score): 0.546
Fuc(a1-2)Gal(b1-4)Glc
  glycan array binding signal (z-score): 2.05
Fuc(a1-2)Gal(b1-4)Glc6S
  glycan array binding signal (z-score): 3.52
Fuc(a1-2)Gal(b1-4)GlcNAc
  glycan array binding signal (z-score): 2.11
[17]
  glycan array binding signal (z-score): 1.95
[18]
  glycan array binding signal (z-score): -0.429
[19]
  glycan array binding signal (z-score): 1.06
[20]
  glycan array binding signal (z-score): 2.22
[21]
  glycan array binding signal (z-score): 3.03
[22]
  glycan array binding signal (z-score): 0.139
[23]
  glycan array binding signal (z-score): 2.6
[24]
  glycan array binding signal (z-score): 1.67
[25]
  glycan array binding signal (z-score): 2.25
[26]
  glycan array binding signal (z-score): 2.51
[27]
  glycan array binding signal (z-score): 0.91
[28]
  glycan array binding signal (z-score): 0.609
[29]
  glycan array binding signal (z-score): 2.37
[30]
  glycan array binding signal (z-score): 2.68
[31]
  glycan array binding signal (z-score): -0.341
Fuc(a1-2)Gal6S(b1-4)Glc
  glycan array binding signal (z-score): 2.37
[32]
  glycan array binding signal (z-score): 2.44
[33]
  glycan array binding signal (z-score): 2.6
Fuc(a1-2)GlcNAc
  glycan array binding signal (z-score): 1.05
Fuc(a1-2)[Gal(a1-3)]Gal
  glycan array binding signal (z-score): 1.85
[34]
  glycan array binding signal (z-score): -0.497
[35]
  glycan array binding signal (z-score): -0.407
[36]
  glycan array binding signal (z-score): -0.428

— the supplement of paper PMC8728848
